From ChEMBL document CHEMBL4888484, “Replenishing the malaria drug discovery pipeline: Screening and hit evaluation of the MMV Hit Generation Library 1 (HGL1) against asexual blood stage Plasmodium falciparum ,using a nano luciferase reporter read-out” (2022) come the findings set out here.

Screen size: about 150,000 compounds; about 540 (0.36%) showed an effect of 50% or more. The list shows a part of the results.

In the experiment the test system is Plasmodium falciparum. Nature of the experiment: Primary screen in NF54 nanoGlo assay, in single point, at 2uM, 72h; a lower Z score goes with more inhibition. The conditions noted are these: timepoint 72 hour. The experiment is classed as functional, Erythrocyte.
For orientation: % Inhibition means the drop in the measured response relative to a control, in per cent. For the compound `O=C(NCCc1cccc2cccnc12)NCC[C@H]1CCCCO1`, the “% Inhibition” value was -10% and the Z score came out at 1.14.

For the compound `CCCCN1C(=O)C2CCC3(CC2C1=O)OCCO3` (centres undefined), the “% Inhibition” value is -11% and the Z score worked out at 1.45.

`CCN(CC)S(=O)(=O)Nc1cc(S(=O)(=O)N2CCOCC2)ccc1NC[C@H]1CCCO1`: the “% Inhibition” value is -3% and the Z score is 0.44.

Turning to `CC[C@H](C)Oc1cc(CNCCC(=O)NC)ccc1OC`, the “% Inhibition” value was -4% and the Z score was found to be 0.3.

As to `O=C1O[C@H]2CN(Cc3ccc4c(c3)OCCO4)C[C@H]2N1Cc1ccccn1`, the “% Inhibition” value is on record as -11% and the Z score is reported as 1.

On to `Cc1c(C(=O)NCc2cccnc2)cnn1-c1nccc(-c2ccccc2F)n1`, for which the “% Inhibition” value is -2% and the Z score was found to be 0.23.

Regarding `CC(C)c1noc(CNC(=O)N2CCC[C@H](C#N)C2)n1`, the “% Inhibition” value is -17% and the Z score worked out at 1.63.

Regarding `O=C(Nc1ccc(-n2ccnn2)cc1)Nc1ccsc1`, the “% Inhibition” value amounted to 31% and the Z score was -3.53.

For `Cc1cc(F)ccc1NC(=O)CC[C@H]1CCCN(C(=O)c2ccc(=O)n(C)n2)C1`, the “% Inhibition” value is reported as -6% and the Z score is recorded as 0.74.

`O=c1ccc(C(F)(F)F)cn1Cc1ccc(-n2cccn2)cc1`: the “% Inhibition” value was 1% and the Z score is -0.1.

Regarding `COc1cccc(-c2cc3n(n2)CCCN(C(=O)C2CCC2)C3)c1`, the “% Inhibition” value is 6% and the Z score is given as -1.26.

Turning to `CC(=O)c1ccc(CNc2ncc(Cl)cn2)nc1C`, the “% Inhibition” value was -16% and the Z score came to 1.6.

Take `C[C@H](Nc1ccc(N2CCCC2=O)cc1)C(=O)N1CCCCCC1`: the “% Inhibition” value came to 0% and the Z score is reported as -0.05.

For `O=C(O)[C@@H]1CN(C(=O)CCc2nccs2)C[C@H]1c1ccc(Cl)cc1`, the “% Inhibition” value was -1% and the Z score was determined as 0.1.

Consider `CC(=O)NCCNC(=O)c1cnc(COc2ccc(F)cc2)nc1O`, for which the “% Inhibition” value is on record as -15% and the Z score worked out at 2.07.

In the case of `CCn1c(C)cc(C(=O)N(C)[C@H]2C[C@@H](OC)C2)c1C`, the “% Inhibition” value is -4% and the Z score was determined as 0.69.

Consider `C[C@@H](c1ccccc1)n1cnnc1CCc1ccccc1O`, for which the “% Inhibition” value is listed as -16% and the Z score turned out to be 2.19.

For `CN1CCC[C@H](CCC(=O)N2CCC3(CC2)C(=O)N(C)c2ccccc23)C1`, the “% Inhibition” value is -6% and the Z score was 0.9.

Take `CN1CC2(C[C@H]1c1noc(-c3ccccn3)n1)CN(C(=O)C1(C)CCCCC1)C2`: the “% Inhibition” value is given as -22% and the Z score is listed as 2.52.

For `Cn1ncnc1NS(=O)(=O)c1cccs1`, the “% Inhibition” value is -15% and the Z score was determined as 2.01.

Regarding `O=C(CN(CC1CCCC1)CC1CCCC1)Nc1cccc(F)c1`, the “% Inhibition” value is on record as -8% and the Z score worked out at 1.47.

Consider `C=C(C)COc1ccc(NC(=O)N(Cc2nnc(CC)o2)C(C)C)cc1`, for which the “% Inhibition” value is -7% and the Z score worked out at 1.33.

`O=C(Cc1ccccc1Cl)N1CCC(=C2CCC2)CC1`: the “% Inhibition” value is on record as -15% and the Z score is given as 2.34.

As for `CCc1ccc(CNC(=O)C2CCN(c3nnc(C)c4c(C)n(-c5ccc(C)cc5)nc34)CC2)cc1`, the “% Inhibition” value was 20% and the Z score was -2.28.

As for `COc1cc(NC(=O)Cn2c(=O)n(-c3cccc(C)c3)c(=O)c3c2cc(C)n3C)cc(OC)c1`, the “% Inhibition” value was -7% and the Z score is given as 0.6.

For the compound `Cc1c(Cl)ccc2c1NC(=O)C21NC(CC(N)=O)[C@H]2C(=O)N(C3CCCCC3)C(=O)[C@H]21` (some centres undefined), the “% Inhibition” value stood at 6% and the Z score is on record as -0.7.

Regarding `O=C(CCCc1nccs1)Nc1ccn(CCc2ccncc2)n1`, the “% Inhibition” value was -2% and the Z score is 0.21.

As for `CCCS(=O)(=O)N1CCC[C@H]1c1cc(C)on1`, the “% Inhibition” value was -18% and the Z score came out at 2.37.

For `CC(C)n1cncc1CN(C)[C@@H]1CCCC[C@@H]1O`, the “% Inhibition” value turned out to be 11% and the Z score was -1.51.

Regarding `CN(C)[C@@H](CNc1oc(-c2ccccc2C(F)(F)F)nc1C#N)c1ccc(C(F)(F)F)cc1`, the “% Inhibition” value is -2% and the Z score was found to be 0.35.

For the compound `COC[C@H](C)NC(=O)Nc1ccnc(C)c1`, the “% Inhibition” value was -8% and the Z score was determined as 0.7.

In the case of `O=C(CCc1nc(C2CCCC2)no1)N1CCCC2(CCCCC2)CC1`, the “% Inhibition” value is recorded as 5% and the Z score is -0.46.

For the compound `CN(C)c1nccnc1NC[C@H]1CC(=O)N(C2CC2)C1`, the “% Inhibition” value is -6% and the Z score is reported as 1.2.

For the compound `COCCc1noc([C@H](C)NC(=O)c2cc(CC(C)C)[nH]c(=O)n2)n1`, the “% Inhibition” value is listed as -11% and the Z score turned out to be 1.67.

For `CO[C@@](C)(CNC(=O)c1ccnc(C2CC2)c1)C1CC1`, the “% Inhibition” value is -9% and the Z score stood at 0.95.

With `CC(=O)NC[C@H]1CN(c2ccnc(C(C)(C)C)n2)CCO1`, the “% Inhibition” value is reported as -12% and the Z score was 1.4.

For the compound `CCn1nnc(C)c1CN[C@H]1CCCc2c(F)cc(F)cc21`, the “% Inhibition” value is 1% and the Z score is given as -0.24.

As to `CCc1nc(CN[C@@H](CC)c2ccc3c(c2)CCO3)cs1`, the “% Inhibition” value is -14% and the Z score is 1.14.

As to `O=C(CNc1cc(S(=O)(=O)N2CCCCC2)ccc1Oc1ccc(Cl)cc1)N1CCNC1=O`, the “% Inhibition” value turned out to be 6% and the Z score was -0.67.

Turning to `O=C(C[C@H]1COc2ccccc2N1)NCc1ccc2c(c1)OCO2`, the “% Inhibition” value is -14% and the Z score stood at 2.51.

As to `NC(=O)NC(Cc1ccccc1)C(=O)NC1CCCN(c2ccccc2F)C1` (centres undefined), the “% Inhibition” value is listed as -1% and the Z score stood at 0.16.

`COCCc1nncn1C1CN(Cc2cccc(Cl)c2)C1`: the “% Inhibition” value is recorded as -2% and the Z score was 0.38.
